Assay results as given in paper PMC4336329 (PLoS ONE, 2015).
Screen size: about 310,000 compounds; about 2,200 (0.71%) showed an effect of 50% or more. The effect is printed as a negative number. Some of the results follow.

target: human ether-à-go-go-related gene (hERG) potassium channel (human, UniProt Q12809); experiment: primary screen, population patch clamp on CHO cells stably expressing hERG
Sequence (Q12809 whole entry, looked up): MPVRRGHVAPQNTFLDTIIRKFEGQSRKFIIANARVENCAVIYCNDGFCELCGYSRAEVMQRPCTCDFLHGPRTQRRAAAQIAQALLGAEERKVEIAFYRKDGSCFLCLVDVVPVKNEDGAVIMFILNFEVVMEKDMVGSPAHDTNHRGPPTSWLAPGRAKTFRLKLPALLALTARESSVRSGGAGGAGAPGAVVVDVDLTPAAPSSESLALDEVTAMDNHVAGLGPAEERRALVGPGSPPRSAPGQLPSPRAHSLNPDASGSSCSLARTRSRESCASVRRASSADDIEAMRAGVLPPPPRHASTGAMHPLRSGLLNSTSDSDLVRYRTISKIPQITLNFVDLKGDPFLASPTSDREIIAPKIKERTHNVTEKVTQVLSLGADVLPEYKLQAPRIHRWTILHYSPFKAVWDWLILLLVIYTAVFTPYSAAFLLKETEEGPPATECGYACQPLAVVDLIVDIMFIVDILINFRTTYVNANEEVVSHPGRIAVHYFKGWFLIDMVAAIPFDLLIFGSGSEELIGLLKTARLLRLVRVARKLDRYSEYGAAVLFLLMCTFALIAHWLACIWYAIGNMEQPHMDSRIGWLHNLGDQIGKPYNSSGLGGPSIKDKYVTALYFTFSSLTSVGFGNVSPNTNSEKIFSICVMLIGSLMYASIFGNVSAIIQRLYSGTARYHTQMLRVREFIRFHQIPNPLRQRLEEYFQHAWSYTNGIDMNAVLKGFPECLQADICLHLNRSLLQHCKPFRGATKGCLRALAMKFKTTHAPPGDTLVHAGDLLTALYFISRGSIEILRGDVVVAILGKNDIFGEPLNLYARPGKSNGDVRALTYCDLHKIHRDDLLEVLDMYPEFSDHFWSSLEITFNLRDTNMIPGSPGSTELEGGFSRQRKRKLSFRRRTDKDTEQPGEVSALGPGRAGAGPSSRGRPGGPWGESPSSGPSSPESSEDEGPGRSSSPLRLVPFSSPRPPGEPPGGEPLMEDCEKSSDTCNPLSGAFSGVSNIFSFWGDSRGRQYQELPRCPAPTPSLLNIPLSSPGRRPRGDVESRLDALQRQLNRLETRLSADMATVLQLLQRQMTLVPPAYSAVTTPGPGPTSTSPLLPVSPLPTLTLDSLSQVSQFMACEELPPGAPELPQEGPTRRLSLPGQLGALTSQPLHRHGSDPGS

SMILES	hERG current change (%, negative = inhibition) at 1uM
O=C(NCc1ccccn1)/C(=C/c1ccco1)NC(=O)c1ccccc1	8.44%
COc1cc(OC)cc(-c2cc(N)n(S(=O)(=O)c3cccc4nsnc34)n2)c1	8.61%
O=C(O)c1cc(C(=O)C2CCCCC2)c[nH]1	18.7%
C/C=C/Cn1c(SCc2ccc(C)cc2)nc2c1c(=O)[nH]c(=O)n2C	1.64%
CC1CCC2CCCCC2N1C(=O)c1cc([N+](=O)[O-])cc([N+](=O)[O-])c1 (stereo not shown)	12.8%
O=C(CN1CCN(c2ccccn2)CC1)N1CC(O)CO1 (stereo not shown)	14%
CCOC(=O)c1c2c(c(=S)n(-c3ccccc3)c1N)CCC2	14.7%
CCOc1ccc(C2C3=C(CCCC3=O)OC(N)=C2[N+](=O)[O-])cc1 (stereo not shown)	20.5%
COCCNC(=O)CSc1nc2ccccc2c2nc(C)nn12	-1.01%
NC(=O)C1CCN(CC(=O)NC2CCCc3ccccc32)CC1 (stereo not shown)	14.4%
NNC(=O)CCn1nnc2ccccc21	12.8%
O=C(NCCN1C(=O)S/C(=C\c2ccc(Cl)c(Cl)c2)C1=O)c1ccc2c(c1)C(=O)N(Cc1ccncc1)C2=O	15.7%
O=C(Nc1cccc(Cl)c1)Nc1ccccc1NS(=O)(=O)c1cccs1	13.3%
Cc1ccc(N2CC(C(=O)NC3CCC(C)CC3)CC2=O)cc1 (stereo not shown)	7.43%
O=C(O)Cc1ccc(NC(=O)Nc2cccc(Cl)c2)cc1	10.1%
CCNCCNc1ccc([N+](=O)[O-])c2cccnc12	0.729%
Cc1cc(=O)oc2cc(O)ccc12	19.1%
O=C(Cn1cccc1C(=O)c1ccccc1)NCc1cccs1	13.1%
CCc1n[nH]c(=S)n1/N=C/c1cc(Br)c(OC)cc1OC	26.3%
NS(=O)(=O)c1cccc(NC(=O)CCSc2ccc(Cl)cc2)c1	11.8%
O=C(N1CCCCC1)C12CC3CC(CC(C3)C1)C2	11.7%
Cc1cn(C2CCC(CO)O2)c(=O)[nH]c1=O (stereo not shown)	7.91%

SMILES	hERG current change (%, negative = inhibition) at 1uM
CCC(CC)N1CCN(Cc2nc3ccccc3c(=O)n2-c2ccc(F)cc2)CC1	-3.22%
Cc1ccccc1N1C(=O)C(Cc2ccc(F)cc2)S/C1=C(\C#N)C(N)=O (stereo not shown)	14.1%
Fc1cccc(Cl)c1Cc1noc(/C=C/c2ccccc2)n1	16.2%
O=C1C=C(O)c2cccc3cccc1c23	17.9%
Cc1nc(-c2ccc(S(=O)(=O)N3CCN(c4cccc(C)c4C)CC3)cc2)co1	14.6%
O=C(CCCc1ccccc1)NCc1ccccc1Cl	7.24%
CCc1ccc(NC(=S)N(Cc2ccc(Cl)cc2)Cc2ccc(C(=O)O)cc2)cc1	12.2%
COc1cc2c(cc1OC)C(C)N(C(=O)Nc1cc(C)cc(C)c1)CC2 (stereo not shown)	7.03%
CC1CCCCC1NC(=O)c1ccc2c(c1)[nH]c(=O)n2C1CCCC1 (stereo not shown)	-5.2%
CCc1nc2ccc(C(=O)N3CCN(c4ccccc4)CC3)cc2nc1CC	11.7%
O=C(Nc1ccccc1C(=O)NCc1ccccc1)c1ccccc1Br	9.82%
Cc1cc(C)cc(Nc2ncnc3nc[nH]c23)c1	6.8%
CN1CCN(c2ccccc2NC(=O)c2ccc(-c3ccccc3[N+](=O)[O-])o2)CC1	-13.8%
Cc1ccc(NC(=O)c2cccc(S(=O)(=O)N3CCc4ccccc4C3)c2)nc1	-8.48%
Cn1c(=O)c2cc(S(=O)(=O)NCCC(=O)NCCc3ccc(Cl)cc3)ccc2n(C)c1=O	-2%
COc1ccc(OC)c(C(C(=O)NCc2ccco2)N(C(=O)Cn2nnc3ccccc32)C(C)C)c1 (stereo not shown)	-1.74%
COc1cccc(NC(=O)C2CC2(c2cccc(OC)c2)c2cccc(OC)c2)c1 (stereo not shown)	3.96%
CCOC(=O)C(C(=O)NCCCN1CCOCC1)C1CCCCC1 (stereo not shown)	12.2%
COc1ccccc1-n1cnnc1SCC(=O)Nc1ccccc1	2.42%
Cc1cc(C)c(S(=O)(=O)Nc2ccc3c4c(cccc24)CC3)c(C)c1	4.46%
c1nc(NCC2(N3CCOCC3)CCCCC2)c2ccsc2n1	-54.5%
Cc1ccccc1NC(=O)CN1C(=O)S/C(=C\c2cccn2-c2cccc(C(=O)O)c2)C1=O	10.7%

SMILES	hERG current change (%, negative = inhibition) at 1uM
CN1CCN(C(=O)Cn2c(C(F)(F)F)nc3ccccc32)CC1	15.2%
O.O=C(/C=C/c1ccc(O)c(O)c1)O[C@@H]1C[C@](O)(C(=O)O)C[C@@H](O)[C@H]1O	7.59%
Cc1c(C(=O)OCC(=O)Nc2c(C)n(C)n(-c3ccccc3)c2=O)cccc1[N+](=O)[O-]	9.1%
CCc1ccc(C(=O)C(C)OC(=O)Cn2cnc3c2c(=O)n(C)c(=O)n3C)cc1 (stereo not shown)	12.3%
O=C(NC1(C(F)(F)F)NC(=O)N(C2CCCCC2)C1=O)c1cccs1 (stereo not shown)	3.99%
O=c1c([N+](=O)[O-])cccn1Cc1ccc(F)cc1Cl	6.45%
COc1ccc(N/C(N)=N/c2nc(CSc3nnc(C)s3)cc(=O)[nH]2)cc1	16.7%
O=C(O)CCCC(=O)NNc1ncnc2ccccc12	12.7%
O=C(Nc1ccc(S(=O)(=O)N2CCCCC2)cc1)C1CCN(C(=O)c2ccco2)CC1	9.8%
NC(=S)Nc1ccc2cc[nH]c2c1	0.216%
COCCCNC(=O)Cn1cnc2sc(C)c(S(=O)(=O)N3CCN(c4ccccc4OC)CC3)c2c1=O	5.16%
Cn1c(CNC(=O)c2ccco2)nnc1SCC(=O)c1ccc(Br)cc1	-7.3%
Cc1ccc2c([N+](=O)[O-])cccc2n1	13%
Br.COc1ccc(N=C/C=C2\C=C(c3ccccc3)OC(C)(C)O2)cc1	7.56%
Cn1ncc(Br)c1N1C(=O)CCC1=O	10.6%
COCC(=O)N1CCC(Oc2ccc(C(=O)NCc3csc(C(C)C)n3)cc2)CC1	29.3%
O=C(CN1C(=O)NC2(CCCC2)C1=O)N1CCN(S(=O)(=O)c2ccc(Cl)c(C(F)(F)F)c2)CC1	3.74%
CCc1ccccc1NC(=O)C(Cc1cccc(OC)c1OC)c1nn[nH]n1 (stereo not shown)	7.66%
O=C(CSc1n[nH]c(-c2ccco2)n1)N1c2ccccc2Sc2ccccc21	14.3%
COc1cc(C(=O)Nc2cc(C(F)(F)F)ccc2N2CCOCC2)ccc1OCC(=O)N1CCOCC1	9.82%
COC(=O)c1sccc1NC(=S)N1CCCCC1	11.8%
Cc1cc(NS(=O)(=O)c2ccc(NC(=O)C(C)Oc3ccc4c(C)cc(=O)oc4c3)cc2)no1 (stereo not shown)	5.14%

SMILES	hERG current change (%, negative = inhibition) at 1uM
O=c1[nH]n(-c2cccc(Cl)c2)c2ncccc12	4.63%
Cc1ccc(NC(=O)NC2CCCCCCC2)cc1C	11.5%
O=C(C1CCCN(S(=O)(=O)c2cccc3nsnc23)C1)N1CCc2ccccc2C1 (stereo not shown)	5.53%
C[C@H]1CCC[C@@]2(O[C@@H](CCO)C[C@@H](O)[C@@H]2O)O1	4.72%
CCCOc1ccc(N2C(=O)CC(N3CCN(c4ccccc4OC)CC3)C2=O)cc1 (stereo not shown)	0.35%
Cn1c(=O)c2c(ncn2CC(=O)N2CCN(S(=O)(=O)c3ccc(Cl)cc3)CC2)n(C)c1=O	9.74%
COc1cc(CCC(=O)N2CCN(c3ccc([N+](=O)[O-])cc3)CC2)cc(OC)c1OC	-83.6%
CC(CN(C)Cc1ccccc1)OC(=O)c1ccccc1F.Cl (stereo not shown)	9.15%
COc1ccc(-c2nsc(SCC(=O)Nc3ccc4c(c3)OCO4)n2)cc1	15%
COc1ccc(N(CC(=O)NC2CCCC2)C(=O)CS(=O)CC(=O)Nc2ccc3c(c2)OCO3)cc1 (stereo not shown)	7.58%
O=C1CC(N2CCc3ccccc32)C(=O)N1c1ccccc1 (stereo not shown)	8.63%
CCc1ccccc1NC(=O)N1CCc2ccccc2C1	14.1%
COc1ccc(C#Cc2c(C=O)n(C)c3ccccc23)cc1	13.5%
COCC1CCN(C(=O)c2ccc(OC3CCN(Cc4ccccn4)CC3)cc2)C1 (stereo not shown)	3.06%
O=C(N/N=C/c1ccc2c(c1)OCO2)/C(=C/c1ccc2c(c1)OCO2)NC(=O)c1ccccc1	8.61%
CCC(C)(C)c1nnc(NC(=O)c2cccc([N+](=O)[O-])c2)s1	0.343%
CCN(CC)S(=O)(=O)c1ccc(C(=O)OCn2nnc3ccccc3c2=O)cc1	0.225%
S=C(NCCSCc1ccc(Cl)cc1Cl)Nc1ccccc1	8.19%
COc1ccccc1-c1ccc(=O)n(CC(=O)NCc2cccs2)n1	15.8%
CC(C)n1c(CCC(=O)O)ccc1-c1ccccc1	10.3%
CCOC(=O)c1cnc(SC)nc1N	-2.51%
O=C(CCCl)Nc1nnc(SCC(=O)NC2CCCC2)s1	2.16%
